Data from PMC4336329 (PLoS ONE, 2015).
Screen size: about 310,000 compounds; about 14,000 (4.5%) showed an effect of 50% or more. Effects have a minus sign here. This is one part of the list.

Each compound was assayed against human ether-à-go-go-related gene (hERG) potassium channel (human, UniProt Q12809) (assay: primary screen, population patch clamp on CHO cells stably expressing hERG).
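Note: peak tail current of the secondary pulse compared with the same well before compound.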

Chain of human ether-à-go-go-related gene (hERG) potassium channel (Q12809 whole entry, looked up): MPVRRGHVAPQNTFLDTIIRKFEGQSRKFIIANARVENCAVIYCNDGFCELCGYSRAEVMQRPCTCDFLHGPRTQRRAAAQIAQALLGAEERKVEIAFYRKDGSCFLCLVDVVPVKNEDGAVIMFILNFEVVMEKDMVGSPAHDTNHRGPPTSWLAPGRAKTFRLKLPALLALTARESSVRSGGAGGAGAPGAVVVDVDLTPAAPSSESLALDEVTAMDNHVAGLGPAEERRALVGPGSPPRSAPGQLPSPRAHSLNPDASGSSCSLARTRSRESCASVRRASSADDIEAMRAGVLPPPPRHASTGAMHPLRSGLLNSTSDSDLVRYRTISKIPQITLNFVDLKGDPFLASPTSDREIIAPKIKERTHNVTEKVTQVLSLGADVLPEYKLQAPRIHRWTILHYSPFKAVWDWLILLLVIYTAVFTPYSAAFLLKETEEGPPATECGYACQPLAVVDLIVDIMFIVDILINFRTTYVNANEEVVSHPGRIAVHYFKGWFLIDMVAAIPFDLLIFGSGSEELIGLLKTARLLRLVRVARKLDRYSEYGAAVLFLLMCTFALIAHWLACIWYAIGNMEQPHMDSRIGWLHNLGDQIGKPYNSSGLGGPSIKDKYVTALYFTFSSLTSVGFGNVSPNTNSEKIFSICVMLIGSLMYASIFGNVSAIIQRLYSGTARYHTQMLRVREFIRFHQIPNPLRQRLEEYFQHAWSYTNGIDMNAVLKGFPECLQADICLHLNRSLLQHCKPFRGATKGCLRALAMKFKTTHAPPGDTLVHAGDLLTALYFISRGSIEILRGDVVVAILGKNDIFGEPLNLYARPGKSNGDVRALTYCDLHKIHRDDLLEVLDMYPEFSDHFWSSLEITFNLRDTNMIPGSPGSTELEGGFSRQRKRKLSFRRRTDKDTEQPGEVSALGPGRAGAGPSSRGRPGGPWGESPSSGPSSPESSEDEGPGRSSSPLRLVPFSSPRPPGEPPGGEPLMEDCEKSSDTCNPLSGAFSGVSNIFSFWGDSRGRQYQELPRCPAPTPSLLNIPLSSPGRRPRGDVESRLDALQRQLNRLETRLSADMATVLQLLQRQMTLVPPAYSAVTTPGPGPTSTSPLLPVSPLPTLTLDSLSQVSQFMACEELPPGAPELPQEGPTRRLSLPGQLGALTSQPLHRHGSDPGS

Row | Structure (SMILES) | hERG current change (%, negative = inhibition) at 10uM
1 | CCC1(c2ccc(F)cc2)NC(=O)N(CC(=O)NCc2ccccc2Cl)C1=O (stereo not drawn) | -10.3%
2 | Cc1c(C(=O)N2CCCc3ccccc32)oc2ccc(S(=O)(=O)N3CCOCC3)cc12 | -44.2%
3 | O=C(NCC1CC1)c1onc(CSc2ccc(F)cc2)c1C(=O)NCC1CC1 | -51.6%
4 | Cc1ccc(C(c2cc(Br)ccc2O)N2CCSCC2)cc1 (stereo not drawn) | -30.9%
5 | O=c1[nH]c(C2CCCN(S(=O)(=O)c3ccccc3)C2)nc2c1nnn2Cc1cccc(Cl)c1 (stereo not drawn) | 14.5%
6 | COCC(=O)NC1CCN(C(=O)NCc2ccccc2)CC1 | -8.64%
7 | Cc1ccc(NC(=O)CSc2ncc3ccccn23)cc1C | 1.55%
8 | CCOc1ccc(-c2nnc(NC(=O)Cc3cc(OC)c(OC)c(OC)c3)o2)cc1 | 8.33%
9 | CO/N=C/C(C#N)c1ncc(C(F)(F)F)cc1Cl (stereo not drawn) | -8.25%
10 | Cc1cc(SCC(=O)c2ccccc2)nc(C)n1 | -6.65%
11 | CC1(c2ccccc2Cl)NC(=O)N(CC(=O)Nc2ccc3c(c2)OCO3)C1=O (stereo not drawn) | -5.81%
12 | CCC(Sc1ccc2nnc(-c3cccnc3)n2n1)C(=O)O (stereo not drawn) | 13.9%
13 | CCOC(=O)C1=C(C)OC(N)=C(C#N)C1c1cc2ccccc2nc1N1CCCCC1 (stereo not drawn) | 6.3%
14 | Cn1cccc1/C=C1\SC(=S)N(NC(=O)c2ccc(F)cc2)C1=O | 18.2%
15 | O=C(c1ccco1)N1CCN(c2ncnc3c(-c4ccccc4)nsc23)CC1 | -14.2%
16 | CCC(C)Nc1ncnc2c1cnn2Cc1ccc(Cl)cc1 (stereo not drawn) | -24.9%
17 | CC(C)(C)NC(=O)N1c2ccccc2Sc2ccccc21 | 9.33%
18 | COc1ccccc1-c1nnc2sc(COc3ccc(F)cc3)nn12 | -74%
19 | Cc1ccc(C(=O)CSC2=C(C#N)C(c3ccco3)C3=C(CC(C)(C)CC3=O)N2)cc1 (stereo not drawn) | -6.17%
20 | O=C(O)COc1ccc2c(c1)O/C(=C\c1cccs1)C2=O | -12.1%
21 | Cc1cc(C)c2c(c1)cc(C)c1nnc(SCC(=O)N3CCCc4ccccc43)n12 | -13.1%
22 | CCCN1CCC2(CC1)C(C#N)=C(N)Oc1c2sc2nc(C)cc(C)c12 | -47.8%
23 | COc1cc(-c2cc(-c3ccc(O)cc3)nc(N)c2C#N)ccc1O | 18.5%

Row | Structure (SMILES) | hERG current change (%, negative = inhibition) at 10uM
24 | C=CCn1c(Oc2ccc(C=O)cc2OCC)nc2c1c(=O)n(C)c(=O)n2C | 24.4%
25 | CCOc1ccc(N2C(=O)CC(Sc3nc(-c4cccs4)cc(C(F)(F)F)c3C#N)C2=O)cc1 (stereo not drawn) | 10.2%
26 | CCC(=O)Nc1nnc(S(=O)(=O)N2CCCCCC2)s1 | 11.8%
27 | CCOc1ccccc1C(=O)N[C@H](C(=O)OCc1cc([N+](=O)[O-])cc2c1OCOC2)C(C)C | -6.89%
28 | OC1(c2ccc(F)cc2)CC2CCC(C1)N2Cc1nnnn1C1CCCC1 (stereo not drawn) | -20.3%
29 | CCOC(=O)N1CCN(c2c(N3CCN(C(=O)OCC)CC3)c(=O)c2=O)CC1 | -29.1%
30 | Cc1c(-c2ccc(Cl)cc2)oc(=O)c2c(N)n(-c3ccccc3)nc12 | 6.06%
31 | CCC1Oc2ccccc2N(CC(=O)NCCCN2CCN(CC)CC2)C1=O (stereo not drawn) | 2.97%
32 | CN(C)/C=C/C(=O)c1ccccc1OCc1cnc(Cl)s1 | 14.6%
33 | Cc1ccc(-c2cc(C(=O)Nc3cc(C)ccc3O)no2)cc1 | 23.8%
34 | COCCC(=O)N1CCC(Oc2ccc(C(=O)N3CCCCCC3)cc2)CC1 | 8.67%
35 | S=c1ccc2ccccc2[nH]1 | 3.94%
36 | CCCCC/C(=N/O)c1c(C)[nH]c2ccccc12 | 4.53%
37 | Cc1cc(C)n(-c2ncc(C#N)cn2)n1 | 18.1%
38 | O=C(Nc1cccc2ncccc12)c1ccc(-c2ccc(Br)cc2)o1 | -0.798%
39 | C1=CC2CCC1ON2c1ccccc1 (stereo not drawn) | 2.6%
40 | CCN(C(=O)CCS(=O)(=O)c1cccc2nonc12)c1ccc(C)c(C)c1 | -10.3%
41 | Oc1ccc(O)c(-c2cnns2)c1 | -27.3%
42 | COc1ccc(CC(=O)N2CCNC2=O)cc1 | -7.39%
43 | C#Cc1ccc([C@H]2C=C(C(=O)N3CCOCC3)O[C@@H](OCc3ccc(CO)cc3)C2)cc1 | -23.2%
44 | Cc1nnc(SCCn2c(N3CCN(Cc4ccccc4)CC3)nc3c2c(=O)[nH]c(=O)n3C)s1 | -38.4%
45 | Cc1cc(C)c(NC(=O)C2CCCN2CCOC(=O)c2ccccc2)c(C)c1.Cl (stereo not drawn) | -26%
46 | CCOC(=O)N1CCN(CC(O)COc2c(C)cc(C)cc2C)CC1.Cl (stereo not drawn) | -18%

Row | Structure (SMILES) | hERG current change (%, negative = inhibition) at 10uM
47 | Cc1c(Br)c([N+](=O)[O-])nn1CC(=O)NCc1ccco1 | -5.27%
48 | CN(C)c1nc(Nc2ccccc2)nc(Oc2ccc(=O)[nH]n2)n1 | 23.6%
49 | CCOC(=O)C1=C(C)NC(=S)NC1c1ccsc1 (stereo not drawn) | -4.29%
50 | CC(=O)c1cccc(Nc2nc(-c3sc(N)nc3C)cs2)c1 | 2.72%
51 | CCOc1ccc(/C=C/C(O)=C2/C(=O)NC3(C)CC2c2ccccc2O3)cc1OC (stereo not drawn) | 8.6%
52 | COCCN(C(=O)CCSc1ccc(F)cc1)c1c(N)n(Cc2ccccc2)c(=O)[nH]c1=O | -7.5%
53 | COc1cccc(C(=O)NC(=S)Nc2nnn(C)n2)c1 | 5.1%
54 | Cc1cc(C(c2ccc(C)o2)c2ccc(C)o2)c(O)c([N+](=O)[O-])c1 | 4.31%
55 | CN(NC(=O)c1ccccc1)c1ncc(C(F)(F)F)cc1Cl | 6.45%
56 | Cc1ccccc1Cn1c(C)nc2ccc([N+](=O)[O-])cc2c1=O | 0.842%
57 | CCC(C)(C)NC(=O)C(c1ccc(C)cc1)N(CCN1CCOCC1)C(=O)CNC(=O)c1cccs1 (stereo not drawn) | 2.71%
58 | CCOc1cc(CNCc2cccs2)cc(Br)c1OC.Cl | -2.1%
59 | O=[N+]([O-])c1cncc([N+](=O)[O-])c1Nc1cccc(O)c1 | 19.9%
60 | CC1=NNC(=O)C1C(c1ccccc1)C(C#N)C#N (stereo not drawn) | 0.593%
61 | COc1cc(-c2cc(=O)c3c(O)c(OC)c(OC)c(OC)c3o2)cc(OC)c1OC | 1.38%
62 | CCCCOc1cccc(-c2cc(C(=O)NNC(=S)NCC)c3ccccc3n2)c1 | 7.47%
63 | Cc1cc(C)cc(Oc2cc(NC(=O)c3cn(C)nc3C)cc([N+](=O)[O-])c2)c1 | 3.51%
64 | COc1ccc(-n2cc(CNC3CCC(O)CC3)c(-c3cccc(F)c3)n2)cc1 (stereo not drawn) | -45.3%
65 | Cc1cc(C(=O)CSc2nc(N)cc(=O)[nH]2)c(C)n1-c1cccc(F)c1 | -5.25%
66 | CCOc1ccccc1C(=O)NC1CCNCC1 | 2.31%
67 | O=C(NCCCCCNC(=O)c1ccco1)c1ccco1 | 12.6%
68 | COc1ccc(S(=O)(=O)N2CCC(C(=O)N[C@H](C(=O)N3CCCCCC3)C(C)C)CC2)cc1 | 6.68%
69 | CSc1nc2c(c(=O)[nH]1)CCCC2 | 20.2%

Row | Structure (SMILES) | hERG current change (%, negative = inhibition) at 10uM
70 | CC1CCc2c(nc3ncnn3c2NCCc2ccccc2F)C1 (stereo not drawn) | -15.7%
71 | COc1ccc(N(CC(=O)NCc2cccs2)S(=O)(=O)c2c(C)nn(C)c2C)cc1 | -15.4%
72 | O=C(CSc1nc(O)c(C2CCCCC2)c(=O)[nH]1)Nc1ccccc1Cl | 5.18%
73 | CN(C)c1ccc(CNC23CN4CN(CN(C4)C2)C3)cc1 | -3.51%
74 | Cc1ccc(C)c(-c2nc3cc(N)ccc3o2)c1 | 6.2%
75 | O=C(NC1CCCCC1)N1CCN(c2ncccn2)CC1 | 15.1%
76 | CC(c1ccccc1)N1C(=O)C2C3C=CC(C4CC34)C2C1=O (stereo not drawn) | 6.69%
77 | CC(C)(C)OC(=O)NC(Cc1ccccc1)C(=O)NCCCC(=O)O (stereo not drawn) | 8.28%
78 | Cc1ccc(C(=O)OCCc2c(C)[nH]n(-c3ccccc3)c2=O)cc1 | 2.97%
79 | CO/N=C(\CS(=O)(=O)Cc1ccc(OC)cc1)c1ccc(Cl)cc1 | 1.62%
80 | O=C(Cc1ccccc1)Nc1nc(=O)c2ccccc2s1 | 5.29%
81 | O=S1(=O)CC/C(=N/Nc2ccccn2)c2cc(F)ccc21 | 17.9%
82 | CN(C)/C=C/C(=O)c1ccc(F)cc1F | -11.3%
83 | CN1CCN(C(=O)c2cc3cc(Cl)ccc3[nH]2)CC1.Cl | -35.7%
84 | COc1ccc(C)cc1NC(=O)CN1C(=O)COc2ccc(S(=O)(=O)N3CCC(C)CC3)cc21 | 26.3%
85 | O=c1[nH]c2ccc(NS(=O)(=O)c3ccc4ccccc4c3)cc2[nH]1 | 4.22%
86 | Clc1ccc(-c2nc(N3CCOCC3)nc3ccccc23)cc1 | 7.36%
87 | Cc1cc(NC(=O)C2CCCC2)n(-c2nc3ccccc3[nH]2)n1 | 9.26%
88 | O=C(NCc1cccs1)C1CCN(S(=O)(=O)c2cccc3cccnc23)CC1 | -11.5%
89 | CCOc1ccc(S(=O)(=O)N2CCCCC2)cc1NC(=O)Cc1cccc(C(F)(F)F)c1 | -2.63%
90 | COc1cc2c(cc1OC)CN(C(=O)CCNS(=O)(=O)c1ccc(Br)cc1)CC2 | -36.8%
